The source gives no read counts; variants with many changes may rest on few reads.
B1: CPEB3 Ribozyme (parent)
chain: UAACAGGGGGCCACAGCAGAAGCGUUCACGUCGCAGCCCCUGUCAGAUUCUGGUGAAUCUGCGAAUUCUGCUGUAUAUCUC

Variants of: B1
Test: self-cleavage, relative activity (ratio to wild type); higher = more cleavage; in vitro, sequencing
Procedure, shortened: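 Libraries of CPEB3 self-cleaving ribozyme mutants came from rounds of error-prone PCR and carried barcodes, which DNA sequencing matched to variants. In vitro transcription used T7 RNA polymerase at 37°C for 5 hours, with a further 15 min in DNase I before EDTA stopped the reaction; the ribozymes cleaved during both steps. The RNA was reverse transcribed with template switching and sequenced on Illumina. Relative activity is the cleaved/total read fraction of a variant divided by that of the unmutated ribozyme, averaged over three batches with at least 5 reads.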

Variant | self-cleavage
C11U U25C U43C U66A | 0.04
C11U C32U A47C U60C A64G | 0.14
C12A A28G A45G U48C C62U U69C U76A | 0.08
C11U A18G A28G G36A U41A A57U U80A | 0.03
C11U U41A U60C | 0.09
C12A U26C U41A A45G U54C U60C U67C | 0.16
C11U A35G A56G | 1.2
C11U A20G U26A U41C A56G A64U | 0.08
C12A A21U U26A C29G U58A U69A | 0.05
C12A A15G A18G U72C A75U U80A | 1.15
C11U A28G U41C | 0.4
C11U A13U A21G U26C A35G | 0.16
C11G U31C U80C | 0.58
C11U A21G U72A | 0.13
C11U A13G C29G U41C U67C U69C | 0.04
C11U U25C U60A A65G | 0.09
C12A U26C A28U U51C U67C A77U | 0.06
C12A U26C U54C A56U | 0.16
C11U A18G G24A U49C | 0.04
C11U G36A U54A U69C | 0.25
C12A U31A C62A U72C | 0.17

Variant | self-cleavage
C12A A57G U78C | 0.71
C11U U26A C37U | 0.22
C11U U41C A47G U80A | 0.44
C12A C27G A47C | 0.1
C11U U49C U51C U69A | 0.09
C12A A28U C39A U60A A75U | 0.18
C11U C12U U41C U72C | 1.28
C11U A18G G19U U69A | 0.06
C11U A21G C27A A47G A56G A57G | 0.03
C11U A13U U41A U60A U66C U78C | 0.04
C11U A20G A28G U41C | 0.32
C11U A28C U51C U72A | 0.29
C11U U31C U51C U67C | 0.06
C11U A28G G61U | 0.06
C11U A45U A65U | 0.4
C11U A35C C40A G46U U80A | 0.04
C11G U31C G36C U43A U74C | 0.86
C12A A47G U48C | 0.21
C11U C17U C32U A47G A56U A75G | 0.03
C12A A15U G30C U51A G52C | 0.07
C11U U31C A65U U78A | 0.13

Variant | self-cleavage
C12A A28G C34U | 0.38
C12A A21G U43A U54A A65U U80A | 0.23
C11G U51A U80A | 0.29
C12A A15U A21G U72C U78C | 0.52
C11G U43A U58C | 0.12
C11U U25G U48C | 0.22
C12A A35G U76C | 0.7
C12A U25C U48A U58C U78C | 0.06
C11U U25A C50A A56G U60C U74C | 0.31
C12A C40A U58C | 0.45
C11U A20G U67C C71U | 0.11
C11U A13U C40G A65G U66C U72A | 0.03
C11U A35G A77G | 1.3
C12A A15U A18U A21C C27G A47G | 0.04
C11U A13G A64G | 0.38
C11U A21G A57C U58C U69C U74G | 0.05
C11U A20G A28G C79A | 0.16
C11U U41A U43C | 0.21
C11U A57G U58C U69C | 0.06
C12A U25C U58A U74C | 0.13
C11G U69A U72C | 0.27

Variant | self-cleavage
C11U A18U A20U A21G U25C C71U | 0.04
C11U A21G G55C A64G | 0.16
C11U A21U A28G U76C | 0.04
C11U A15G U25C A35U U48C A57U U80C | 0.04
C11U C29U U48C U60G | 0.27
C11U C29G C32G U58C U60C G61U | 0.04
C11U A64G U66C U69A | 0.13
C12A U43A U54G A65G | 0.29
C12A A45G G70A | 0.27
C11U A20U G55U U66G U72A | 0.09
C11U U49C U58A | 0.13
C12A A18U U54C U58A | 0.15
C11U U25C U31C A35U A47G U66C | 0.04
C11U G19A A21U A45G | 0.05
C11U A20C C23G A56G A57G | 0.05
C11U A18G U26G U41A U60C | 0.06
C11U A35G U72A | 1.21
C12A A35G U41G U54A U76A | 0.32
C11U U54A U80C | 0.62
C11U A21G U31C U67G U72C | 0.04

Reference: the RNAGym collection of RNA variant scans (doi:10.1093/nar/gkz1192)
